For some assays here: At least one peptide structure holds a part that was inferred or is arguable (an end, a ring closure or a residue). Some entries share one result that the patent states for a list of compounds. Square brackets hold non-standard residues; d marks the D form. Peptide text beside a SMILES is read from it. * marks the point of attachment. Biotin = O=C1N[C@H]2[C@H](CS[C@H]2CCCCC(=O)*)N1; Ahx = NCCCCCC(=O)O
Assays:
HSV-1 KOS mutant hrR3 = assay: LacZ+ virus (hrR3) entry assay with pre-adsorbed virus (entry block); format: cell-based; conditions: read-out: Entry Blocking Activity IC50
Method: LacZ^+ virus (hrR3) entry assay: Confluent Vero cell cultures in 96-well microtiter plates were switched to Hepes-buffered serum-free DMEM, cooled on ice to 4° C. for 30 min, and infected with hrR3 for 1 hour at 4° C. in 40 μL of medium. Unattached virus was removed by rinsing with ice-cold medium. Treatments with antiviral peptide SEQ ID NO:1, referred to as EB, or a control peptide which comprised the RRKK tetra-peptide (SEQ ID NO:16) attached to a scrambled version of the membrane transiting peptide RRKKLAALPLVLAAPLAVLA (SEQ ID NO:17) (referred to as EBX), or mock-treatments with peptide-free medium were carried out in serum-free DMEM as indicated. Virus entry was initiated by transferring cultures to 37° C. To inactivate any remaining extracellular virus, cultures were rinsed with PBS and exposed to low pH citrate buffer (40 mM citric acid, 10 mM KCl, 135 mM NaCl, pH 3.0, according to Highlander et al., J. Virol. 61:3356 (1987), for 1 min at 23° C. The citrate was rinsed off with PBS and cultures were maintained in serum-supplemented DMEM until they were fixed with 0.5% gluteraldehyde in 5×PBS for 30 min at 23° C., stained for β-galactosidase activity for 1 hour or overnight at 23° C. with X-gal (Fisher Biotech; BP1615-1) in 1×PBS containing […], 1.3 mM K4Fe(CN)6, and 1.3 mM K3Fe(CN)6, and scored for the presence of blue […] cells.
In these studies, the hrR3 virus was pre-adsorbed to cells for 1 hour at 4° C. before ice cold 25 μM EB or EBX were added in serum-free DMEM. After an additional 1 hour at 4° C., cultures were shifted to 37° C. to initiate virus entry. At 15 min intervals following the temperature shift, any virus remaining outside the cells was inactivated by washing the cultures with low pH citrate buffer. Cultures were then rinsed and returned to peptide-free serum-supplemented DMEM until they were fixed and stained for β-galactosidase 8 hours after the temperature shift.
Two assays were used to assess the ability of the TAT peptides to inhibit infection of Vero cells with the hrR3 virus. In both assays, the virus was preadsorbed to cells at 4° C. and entry was initiated in the presence of peptide by shifting the cultures to a permissive temperature (30-37° C.). One hour later, the peptide was rinsed off. The entry blocking activity was measured in half of the cultures, in which any extracellular virus remaining after the peptide treatment was inactivated with low pH citrate buffer. The rest of the cultures were exposed to PBS instead of citrate buffer and used to measure virus inactivation. Virus inactivation depended on persistent effects of the peptide lasting for a period of eight hours. At the end of that period, all cultures were fixed and infected cells were detected by staining with X-gal.
Virus (m.o.i.=0.025) was preadsorbed to Vero cells for 1 h at 4° C. before cultures were exposed to TAT-C (FIG. 15A), bTAT-9X (FIG. 15B), or n50,51TAT-C (FIGS. 15C, 15D) for 1 h at 33 (FIGS. 15A, 15B), 31 (FIG. 15C), or 37° C. (FIG. 15D). […] Inhibition of entry was measured in the citrate-treated cultures, in which any remaining external virus was inactivated immediately following exposure to peptide (●). Persistent virus inactivation lasting, at least in part, for the 8 h period following exposure to peptide, was measured in the PBS-treated cultures (◯). The IC50s measured in these experiments are included in Table 5.

hrR3 = assay: Virucidal assay; format: cell-based, HSV-1
Method: […] The treated virus was diluted 200-fold with serum-supplemented DMEM and assayed for infectivity approximately 1 hour later in microtiter wells seeded with Vero cells (3.5×10^4 cells/well) 1 d earlier. Forty or 100 microliter volumes of diluted virus were adsorbed for 1 or 2 h at 37° C. and lacZ^+ cells were scored 8 hours later. In some experiments, aliquots of diluted virus were first dialyzed (Spectra/Por; MWCO 12-14,000) overnight at 4° C. against a 60-fold excess volume of Hepes-buffered serum-supplemented DMEM or forced by syringe through 0.22 μm membranes (Millex-GV; Millipore) before the remaining infectious virus was assayed.

HSV-1 = assay: Anti-free virus activity; format: cell-based
[1] = test system: influenza A virus (Sydney 05/97,H3N2)

Compound | IC50 (HSV-1 KOS mutant hrR3) | Virucidal Activity 4° C. IC50 (hrR3) | IC50 (hrR3; 37° C., read-out: Virucidal Activity 37° C. IC50) | Virucidal Activity 37° C. IC50 (hrR3; 37° C.) | IC50 (HSV-1) | infection with influenza A virus blocked [1]
CC[C@@H](C)[C@@H](NC(=O)[C@@H](CCCCN)NC(=O)[C@H](NC(=O)[C@@H](CCC(N)=O)NC(=O)[C@@H](CCCNC(=N)N)NC(=O)CCCCCNC(=O)CCCC[C@@H]1SC[C@@H]2NC(=O)N[C@@H]21)[C@H](C)CC)C(=O)N[C@H](Cc1c[nH]c2ccccc12)C(=O)N[C@H](Cc1ccccc1)C(=O)N1CCC[C@@H]1C(=O)N[C@H](CC(N)=O)C(=O)N[C@H](CCCNC(=N)N)C(=O)N[C@H](CCCNC(=N)N)C(=O)N[C@H](CCSC)C(=O)N[C@H](CCCCN)C(=O)N[C@H](Cc1c[nH]c2ccccc12)C(=O)N[C@H](CCCCN)C(=O)N[C@H](CCCCN)C(N)=O [bHOMd, b - RQIKIWFPNRRMKWKK-amide] ({Biotin-Ahx}-[dR][dQ][dI][dK][dI][dW][dF][dP][dN][dR][dR][dM][dK][dW][dK][dK]-NH2) | 7 µM | None | 115 µM | – | – | –
CC[C@H](C)[C@H](NC(=O)[C@H](CCCCN)NC(=O)[C@@H](NC(=O)[C@H](CCC(N)=O)NC(=O)[C@H](CCCNC(=N)N)NC(=O)CCCCCNC(=O)CCCC[C@@H]1SC[C@@H]2NC(=O)N[C@@H]21)[C@@H](C)CC)C(=O)N[C@@H](Cc1ccccc1)C(=O)N[C@@H](Cc1ccccc1)C(=O)N1CCC[C@H]1C(=O)N[C@@H](CC(N)=O)C(=O)N[C@@H](CCCNC(=N)N)C(=O)N[C@@H](CCCNC(=N)N)C(=O)N[C@@H](CCSC)C(=O)N[C@@H](CCCCN)C(=O)N[C@@H](Cc1ccccc1)C(=O)N[C@@H](CCCCN)C(=O)N[C@@H](CCCCN)C(N)=O [bHOMFF, b - RQIKI F FPNRRMK F KK-amide] ({Biotin-Ahx}-RQIKIFFPNRRMKFKK-NH2) | 40 µM | None | – | None | 34 µM | –
CC(C)C[C@H](NC(=O)[C@H](C)NC(=O)[C@H](CC(C)C)NC(=O)[C@H](CC(C)C)NC(=O)[C@@H](NC(=O)[C@H](C)NC(=O)[C@@H]1CCCN1C(=O)[C@H](CC(C)C)NC(=O)[C@H](CC(C)C)NC(=O)[C@H](C)NC(=O)[C@@H](NC(=O)[C@H](C)NC(=O)[C@H](C)NC(=O)[C@H](CCCCN)NC(=O)[C@H](CCCCN)NC(=O)[C@H](CCCNC(=N)N)NC(=O)[C@@H](N)CCCNC(=N)N)C(C)C)C(C)C)C(=O)N[C@@H](CC(C)C)C(=O)N[C@@H](C)C(=O)N1CCC[C@H]1C(=O)O [EB] (H-RRKKAAVALLPAVLLALLAP-OH) | – | – | – | – | – | > 80%

From US7432045B2 (priority 2003, dated 2008)
